Data as given in PubChem BioAssay (NCI).
Where “and” joins values, the source holds several entries; their conditions need not be identical. Equal entries are not always repeated.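 Five concentrations, 48 hours, 96-well plates. The concentration for 50% growth inhibition is given as GI50. The concentration for full growth arrest is given as TGI.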 Peptide text beside a SMILES is read from it. * marks the point of attachment. Boc = CC(C)(C)OC(=O)*; OBn = c1ccc(CO*)cc1

Tested on: NCI-H322M lung
Test: inhibition of tumour cell growth, NCI panel, 48 h

CC12CC(OC(=O)[C@]1(C)O)[C@@H]([C@]1(O)CC[C@H]3[C@@H]4C[C@H]5O[C@]56[C@@H](O)C=CC(=O)[C@]6(C)[C@H]4CC[C@@]31C)C2 (stereo partly drawn) was tested, and the TGI was 47.2 µM.

C=CCC(OCCOCC)c1cc(OCCOCC)ccc1OC (stereo not drawn) was tested, and the TGI was > 100 µM.

COc1cccc2c1C(=O)c1ccc3cc(CCl)cc(O)c3c1C2=O was tested, and the TGI was 1.95 µM.

In the case of C[n+]1cccc2ccc(OC(=O)c3ccccc3)cc21, the TGI is reported as > 100 µM.

For c1ccc(C2OCC(OC3CCCCO3)CO2)cc1 (stereo not drawn), the TGI was > 100 µM.

For CCN1C(=O)N(CC)C2C1NN=c1s/c(=C\c3cc4ccccc4[nH]3)c(=O)n12 (stereo not drawn), the GI50 was 0.0576 µM and the TGI was > 68.2 µM.

In the case of COC(=O)C1=C(O)c2cc3c(cc2[C@H](c2cc(OC)c(OC)c(OC)c2)C1C(=O)OC)OCO3 (stereo partly drawn), the TGI is reported as > 100 µM.

C[C@]12CCc3sc(Nc4ccc(O)cc4)nc3C1=CC[C@@H]1[C@@H]2CC[C@]2(C)C(=O)CC[C@@H]12 was tested, and the GI50 was 6.4 µM and the TGI was > 100 µM.

c1ccc(CSc2nnc3c4ccccc4c4ccccc4c3n2)cc1 was tested, and the TGI was > 100 µM.

With CC1=N[C@](C)(C2CC3C=CC2C3=O)COC1=O (stereo partly drawn) the TGI was > 100 µM.

With CCOC(=O)/C=C(\C(=O)OCC)n1ccc(=O)n(CC(=O)OCC)c1=O the TGI was 32.4 µM.

In the case of O=C(O)CC1(CC(=O)O)Nc2ccccc2SC1=O, the TGI is reported as > 100 µM.

In the case of COC(=O)[C@@]12C(=O)C(C)C(=O)[C@]1(C)C(C)=C[C@H]1[C@]3(C=O)CC[C@H](OC(C)=O)C(C)(C)[C@H]3CC[C@@]12C (stereo partly drawn), the TGI is reported as > 100 µM.

For COc1ccc(/C=C2\CCC(CN(C)C)C2=O)cc1OC (stereo not drawn), the TGI was 31.7 µM.

For CCc1nnc(-c2nsc3ccccc23)s1, the TGI was > 100 µM.

Work on COc1ccc(C(=O)/C=C/c2cccnc2)cc1OC yielded a TGI of 27.3 µM.

With O=C(O)CC1OCC=C2CN3CCC45C6=CC(=O)C(=O)C([N+](=O)[O-])=C6NC4C1C2CC35 (stereo not drawn) the TGI was > 100 µM.

Work on CC(=O)N1N(c2ccc([N+](=O)[O-])cc2)C(=O)C1(C)C yielded a TGI of 94.9 µM.

Compound CCN(CC)C(=S)N=Nc1c(O)[nH]c2ccccc12 has a TGI of 11.6 µM.

NC(=O)NC(=O)c1cccc(NC(=O)CF)c1 was tested, and the TGI was > 100 µM.

In the case of Nc1n[nH]c2cccc(C#Cc3cccc(C(=O)Nc4cc(CN5CCOCC5)cc(C(F)(F)F)c4)c3)c12, the GI50 is reported as 5.43 µM and the TGI is reported as 18.7 µM.

OCC1OC(n2cnc3c(=S)nc[nH]c32)C(O)C1O (stereo not drawn) was tested, and the GI50 was 8.64 µM and the TGI was > 2500 µM.

C/C(=N\NC(=S)NC(C)(C)C)c1ccccn1 was tested, and the TGI was > 100 µM.

CC(C)CC(NC(=O)C(CCI)Cc1ccccc1)C(=O)Nc1ccccc1 (stereo not drawn) was tested, and the TGI was > 100 µM.

For O=C1CCCCC/C1=C\c1ccc(Cl)cc1, the TGI was > 100 µM.

With Cc1ccc(-c2c(C#N)c(N)nc3c2CCS(=O)(=O)c2ccccc2-3)cc1 the TGI was > 100 µM.

In the case of O=c1cc(N=Nc2ccc(O)cc2)[nH]c(=O)[nH]1, the TGI is reported as > 100 µM.

COc1ccc(-c2cc(=O)c3cc4c(cc3[nH]2)OCO4)cc1 was tested, and the TGI was > 100 µM.

With O=C(NCCc1ccccc1)c1c(O)c2ccccc2[nH]c1=O the TGI was > 100 µM.

With CN(C)CCn1c(=O)c2ccc3c4c(nn3CCN(C)C)c3cc(O)ccc3n(c1=O)c24 the TGI was 0.15 µM.

O=C1C(=C(I)I)c2ccccc2-c2ccccc21 gave a TGI of 24.8 µM.

For O=C1C(=Nc2ccccc2)Oc2cc(O)ccc21, the TGI was > 100 µM.

For CC(NC(=O)C(Cc1ccccc1)NC(=O)C(Cc1ccccc1)NC(=O)OC(C)(C)C)C(=O)OCc1ccccc1 (stereo not drawn) (Boc-Phe-Phe-Ala-OBn; configuration not given here), the TGI was > 100 µM.

With CCOc1ccccc1/C=N\N=C(\N)N/N=C/c1ccccc1OCC the GI50 was 4.63 µM and the TGI was > 100 µM.

With CCCC(Sc1ccccc1)P(=O)(c1ccccc1)c1ccccc1 (stereo not drawn) the TGI was > 100 µM.

Work on C=C=C(Sc1ccccc1)C(C)(C)OC(C)=O yielded a TGI of 61.3 µM.

In the case of Cc1ccc2c(c1)-c1c(C#N)c(N)nc(-c3ccccc3)c1CCS2(=O)=O, the TGI is reported as > 100 µM.

With CC1OC1C(=O)C1(O)C(C)C(O)C23OC2(C(O)c2c(O)cccc2C3=O)C1O (stereo not drawn) the TGI was 0.4 µM.

CN(C)CC1CCCCCC(CN(C)C)C1=O (stereo not drawn) was tested, and the GI50 was 33.2 µM and the TGI was > 90.8 µM.

COc1ccc2c(c1)C(C)Cc1c(Cl)nc(C)nc1N2C (stereo not drawn) showed a GI50 of 5.86 µM and a TGI of 35.6 µM.

With CCN(CC)c1ccc(C(=N)c2ccc(N(C)C)cc2)cc1 the GI50 was 3.42 µM and the TGI was 19.5 µM.

With CN(C)c1ccc(C(=C2C=CC(=[N+](C)C)C=C2)c2ccc(N(C)C)cc2)cc1 the GI50 was 0.339 µM and the TGI was 1.33 µM and 1.59 µM.

CCCCCCCOc1c(OC)cc(C2CC(=O)Nc3c2c(C)nn3-c2nc3ccccc3[nH]2)cc1OC (stereo not drawn) was tested, and the GI50 was 3.64 µM and the TGI was > 100 µM.

For CC1CCC(C(C)C)C(O[C@@H]2OC(=O)C[C@@H]2Sc2ccccc2)C1 (stereo partly drawn), the TGI was > 100 µM.

O=C1/C(=C/c2c(Cl)[nH]c3ccccc23)c2ccccc2N1c1ccccc1 gave a TGI of 43 µM.

In the case of CC(C)(C)OC(=O)N/N=C(/N)Cc1ccccc1, the TGI is reported as > 100 µM.

For O=C(Cc1ccccc1)NNc1nc(NNC(=O)c2ccncc2)nc(Nc2cccc(Cl)c2)n1, the TGI was > 10 µM.

For O=S(=O)(O)c1ccc2c(N=Nc3ccc(F)cc3)c(O)c(S(=O)(=O)O)cc2c1, the TGI was > 100 µM.
